# Source: publication PMC12040169 (PLOS Biology, 2025)
# The other results are listed elsewhere or left out.
# Tested on: T1, C. trachomatis L2/434/Bu expressing GFP (CTL2-GFP)
# T1 construct: L2/434/Bu GFP intracellular growth in HeLa cells
# Set-up: species or system HeLa; C. trachomatis total inclusion area by high-content imaging, normalised to DMSO
# Details: total inclusion area; 28.5 h, 10 µM; inhibitor
# Outline: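 High-content imaging followed the bulk GFP/resorufin measurement: fixed, Hoechst-stained cells were scored for GFP inclusions and host nuclei per well. Total inclusion area and count served as growth proxies, nuclei number as the viability proxy. MIC calculation matched the bulk assay.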
row,SMILES,% of control remaining
1,CC(C)(C)OC(=O)N1CCN(c2ccc(N)cn2)CC1 [CBK003463],76.779
2,CC(=O)NCCSc1cccc(C(F)(F)F)n1 [CBK105299],96.9062
3,O=[N+]([O-])c1ccc(/C=N/CCCN2CCOCC2)cc1 [CBK261058],88.2999
4,COc1ccccc1-c1ccc(CN(C)Cc2ccccc2N2CCOCC2)cc1 [CBK286108],69.0354
5,O=C1NC2CCCCC2NC1CC(=O)N1CCN(C(c2ccccc2)c2ccccc2)CC1 (stereo not drawn) [CBK269201],113.739
6,COc1ccc(C(=O)N2CCC3(CC2)NC(=O)c2ccc(C(F)(F)F)cc2O3)cc1OC [CBK166265],65.4139
7,COc1ccc(CC(=O)Nc2cccc(OC(F)(F)F)c2)cc1OC [CBK296734],52.3478
8,O=C(COc1ccccc1)NCc1ccc(OC2CCNCC2)cc1 [CBK028425T],88.2567
9,COC(=O)c1cccc(Cn2cc(/C=C\[N+](=O)[O-])c3ccccc32)c1 [CBK269020],79.1819
10,COc1ccc(C(=O)Nc2ccc(N3CCN(C(=O)C(C)(C)C)CC3)cc2)cc1OC [CBK270245],101.796
11,Cc1ccc2nsnc2c1NC(=O)CN1CCN(c2ccc(F)cc2)CC1 [CBK269231],73.1925
12,Cc1ccccc1-c1ccccc1CC1(C(=O)N(C)C)CCN(C(=O)C2CC=CCC2)CC1 (stereo not drawn) [CBK285733],100.768
13,CCOC(=O)C1CCCN(CCC(=O)Nc2cccc(F)c2)C1 (stereo not drawn) [CBK264275C],91.7269
14,CC(=O)N1CC(C(=O)N2CC3(CCCC3)c3c(F)cccc32)C1 [CBK306292],87.46
15,CN1CCc2c(sc3c2C(=O)NC(/C=C\c2ccc([N+](=O)[O-])cc2)N3)C1 (stereo not drawn) [CBK262909],116.541
16,Cc1cccc(C)c1NC(=O)CC(C(=O)O)N(C)C (stereo not drawn) [CBK267022],117.559
17,Cc1ccc(OCC(=O)Nc2ncc(Cc3ccc(F)cc3)s2)cc1 [CBK293930],102.902
18,CN(C)CCN(C)C(=O)c1ccc(-c2ccccc2CO)nc1N(C)C [CBK076591],105.384
19,O=C(CSc1nnc(-c2ccccc2O)o1)c1ccc(Cl)cc1 [CBK068032],62.6987
20,C(=N\c1ccc(Cc2ccncc2)cc1)/c1ccc(/C=N/c2ccc(Cc3ccncc3)cc2)cc1 [CBK262137],95.0049
21,O=C(CCc1ccc(F)cc1)N1CCCC(c2cccc(Cc3ccccc3F)n2)C1 (stereo not drawn) [CBK286512],88.5613
22,Cc1cc(NC(=O)CN2CC(C(=O)N3CCN(c4ccccc4)CC3)C2)no1 [CBK285665],87.3243
23,CC(Oc1ccccc1)C(=O)Nc1ccc(C(=O)O)cc1 (stereo not drawn) [CBK287154],101.675
24,Fc1ccc2c(ccn2CCCN2CCN(c3ccncc3)CC2)c1 [CBK043645G],112.234
25,N#Cc1ccc(-c2cc(N3CCN(C(=O)c4ccco4)CC3)ncn2)cc1 [CBK037813],62.8978
26,O=C(Nc1ccccc1)N[C@H]1CO[C@H]2[C@@H]1OC[C@H]2OC(=O)Nc1ccccc1 [CBK289465],105.727

row,SMILES,% of control remaining
1,Cc1ccc(CN2C[C@H]3C(=O)Nc4ccccc4C(=O)N[C@@]3(C)C2)o1 [CBK284706],57.7454
2,COc1ccc(CCCC(=O)Nc2cc3ccccc3c(N3CCNCC3)n2)cc1OC [CBK028417T],100.362
3,Cc1ccc(C2c3c(oc4ccccc4c3=O)C(=O)N2CCCCCC(=O)O)cc1 (stereo not drawn) [CBK287158],102.031
4,Cc1cnn(CC(=O)N2CCCCC2CN2CCCCCC2)c1 (stereo not drawn) [CBK282103],128.043
5,COc1ncc(-c2nc(NC(=O)Cc3cc(F)c(F)c(F)c3)cnc2-c2cccc(C)c2)c(OC)n1 [CBK036717],83.6947
6,O=C(Nc1nccc(N2CCNCC2)n1)C1CCCC1 [CBK004302T],68.9978
7,Cc1[nH]c2ccccc2c1C(=O)N1CCC(CC(=O)N2CCN(c3ccccc3)CC2)CC1 [CBK286033],110.076
8,N#Cc1cccc(-n2cc(-c3ccc(Br)cc3F)nn2)c1 [CBK113143],90.4718
9,O=C(O)CCc1ccc(-c2ccc(F)cc2)n1NC(=O)c1ccco1 [CBK268853],81.3266
10,O=C(NCCc1ccccc1)N(Cc1ccc(-c2ccccc2)cc1)CC1CCNCC1 [CBK049792],95.85
11,CN1CCCc2c1oc1c(OCc3cccnc3)cccc1c2=O [CBK007904],95.043
12,CN(C)CCCC(=O)Nc1ccc2c(ccn2Cc2ccccc2)c1 [CBK159740],73.9431
13,CN1CCc2nc(SCc3cccnc3)c(C#N)cc2C1 [CBK267463],101.225
14,Cc1ccc(C(C)C)c(OCC(=O)N2CCN(Cc3nc4cc([N+](=O)[O-])ccc4n3C)CC2)c1 [CBK268519],80.1339
15,CCCCCC(=O)N1CCc2cc(N3CC(CNC(C)=O)OC3=O)ccc21 (stereo not drawn) [CBK007646],89.1054
16,COc1ccc(-c2nnc(SCC(=O)Nc3ccccc3[N+](=O)[O-])n2C)cc1 [CBK265609],107.478
17,COCCNC(=O)c1cc(-c2ccc(C)s2)nc2c1cnn2C(C)C [CBK305051],93.1752
18,Cc1[nH]c(=O)[nH]c(=S)c1C(=O)Nc1ccc2c(c1)OCO2 [CBK115519],98.6788
19,O=C(O)c1cccnc1SC1CC(=O)N(c2cccc(Cl)c2Cl)C1=O (stereo not drawn) [CBK269306],86.7964
20,CC1=C[C@@H](CNS(=O)(=O)c2cccs2)[C@H](C(C)C)C[C@H]1CC(=O)O [CBK289210],93.6588
21,COc1cc(C(C)c2cc3c(cc2O)OCO3)cc(OC)c1OC (stereo not drawn) [CBK200103],15.4845
22,COc1ccc(-c2ocnc2C(=O)NCCc2ccccc2F)cc1 [CBK283941],63.9646
23,CC1(C)CC(=O)c2sc(NC(=O)C3CC3)nc2C1 [CBK287329],106.76
24,Nc1ncc(-c2ccc(C(=O)N3CCOCC3)cc2)nc1-c1ccc(Cl)s1 [CBK138510],94.2153
25,COC(=O)c1c(NC(=O)CC2NCCNC2=O)sc(C)c1C (stereo not drawn) [CBK269447],109.595
26,CCN(CC)C(=O)Cn1c(=O)n(CC)c2ncccc21 [CBK282347],93.9771

row,SMILES,% of control remaining
1,CCOc1ccc(-c2nc(CSc3n[nH]c(=O)n3Cc3ccccc3)cs2)cc1 [CBK296737],106.926
2,Cc1ccc(CN[C@@H]2COC[C@H]2Cc2cc(C)no2)cc1 [CBK283030],77.7584
3,Cn1c(N2CCCC(C(N)=O)C2)nc2ccccc21 (stereo not drawn) [CBK282372],115.159
4,Cc1ccc(-c2cnc(NC(=O)Cn3cccn3)n2C)cc1C [CBK281727],71.8579
5,O=C(CN(c1cccc(Cl)c1)S(=O)(=O)c1ccccc1)Nc1cccc2cccnc12 [CBK263270],73.9418
6,C=CCN1CCC2(CC1)CN(C(C)=O)Cc1cc(C)ccc1O2 [CBK282693],108.536
7,COC(=O)c1ccc(Oc2nc(OC)cc(OC)n2)cc1 [CBK092221],90.8833
8,COc1ccc2[nH]c3c(c2c1)CCNC31CCN(CCSc2ccccc2)C1 (stereo not drawn) [CBK084541T],48.5095
9,CC(=O)NCc1cccc(-c2cc(C(=O)NCC3CN(Cc4ccccc4)CCO3)cnc2-c2ccc(Cl)cc2)c1 (stereo not drawn) [CBK164416T],103.806
10,CN(CC(=O)NCc1ccc(OCC(N)=O)cc1)C1CCCCC1 [CBK306331],70.0249
11,O=C(NC(c1cccc([N+](=O)[O-])c1)c1cc(Cl)c2cccnc2c1O)c1cccnc1 (stereo not drawn) [CBK263987],101.145
12,Cc1c(O)ccc2c(COC(=O)C3(c4ccccc4)CCCC3)cc(=O)oc12 [CBK295622],86.5165
13,COc1cc(-c2cncc(N3CCC(C(=O)O)CC3)n2)cc(OC)c1OC [CBK037973],60.1696
14,Cc1cc(C)nc(SCC(=O)Nc2cccc(C(=O)O)c2)n1 [CBK263214],105.424
15,Cc1ccc(-c2c[nH]c([C@@H]3COCCN3Cc3c[nH]cn3)n2)cc1 [CBK289315],126.47
16,O=C(Nc1ccc2c(c1)nc1n2CCN(Cc2ccccc2)C1)NC1CCCCC1 [CBK267033],99.412
17,CS(=O)(=O)N1CCc2cc(-c3csc(NCC(F)(F)F)n3)ccc21 [CBK305650],67.406
18,CC(C)(C)c1ccc(O)c(NC(=S)NC(=O)c2ccccc2I)c1 [CBK264399],90.6127
19,O=C(Nc1cc(Oc2cccnc2)cc([N+](=O)[O-])c1)c1nn2c(C(F)(F)F)cc(-c3cccs3)nc2c1Br [CBK262535],103.428
20,CC(C)[C@@H](CO)Nc1nc(-c2cncnc2)cnc1N [CBK063735],163.86
21,C/C(=N\Nc1cccc2cccnc12)C(C)(C)C [CBK021957],87.6833
22,COc1cccc(NC(=O)NC(=O)C2CCN(C(C)C)CC2)c1 [CBK034798],82.2925
23,O=C(Nc1ccncc1)c1cnc2cc(C(F)(F)F)ccc2c1O [CBK116633T],83.0719
24,CSc1ccc(-n2cc(-c3ccc(F)cc3F)nn2)cc1 [CBK112979],95.6854
25,CC(C)c1ccccc1NC(=O)NC(=O)C1CCN(CCc2ccc(C#N)cc2)CC1 [CBK035010],93.1362
26,COC(=O)Nc1ccc2c(c1)N(C(=O)CCN(C)C)c1ccccc1CC2 [CBK262972C],65.1676
